# Measured values as given in PubChem BioAssay AID588342 (National Center for Advancing Translational Sciences (NCATS), 2011).
# Values joined by “and” are separate entries in the source; they are usually repeats but may differ in a detail not shown here. Identical values can stand only once. The campaign covered roughly 360,000 compounds. About 25,000 (6.9%) were called active. Inconclusive means that the source gave no clear call. Such entries were picked first, then a sample of the others. Calls follow the shape of the dose curve; as a rule, active = well fitted inhibition curve with a large enough effect; inconclusive = small, poorly fitted or top-dose-only effect; inactive = flat fitted curve, though single readings scatter. Potencies beside an inconclusive call are fits to weak or partial responses and may not hold up.
# Biological target: Luciferin 4-monooxygenase (Photinus pyralis) (UniProt P08659)
# Chain of UniProt P08659 (P08659 whole entry, looked up): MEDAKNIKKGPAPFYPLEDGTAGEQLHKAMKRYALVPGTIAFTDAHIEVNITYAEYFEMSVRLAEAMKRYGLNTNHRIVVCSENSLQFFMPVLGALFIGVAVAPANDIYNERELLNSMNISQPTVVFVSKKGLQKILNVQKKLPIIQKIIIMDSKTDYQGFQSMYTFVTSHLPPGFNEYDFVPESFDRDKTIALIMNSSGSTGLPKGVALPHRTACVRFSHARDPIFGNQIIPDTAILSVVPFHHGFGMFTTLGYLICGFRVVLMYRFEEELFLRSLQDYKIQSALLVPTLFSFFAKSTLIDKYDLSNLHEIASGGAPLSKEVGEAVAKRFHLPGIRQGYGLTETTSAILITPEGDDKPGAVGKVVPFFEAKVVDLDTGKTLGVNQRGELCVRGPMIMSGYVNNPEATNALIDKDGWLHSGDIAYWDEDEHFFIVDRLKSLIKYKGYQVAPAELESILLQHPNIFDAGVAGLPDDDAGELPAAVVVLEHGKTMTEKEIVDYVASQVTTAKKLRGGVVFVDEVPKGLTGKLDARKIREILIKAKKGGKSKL
# Experiment: qHTS profiling assay for firefly luciferase inhibitor/activator using purifed enzyme and Km concentrations of substrates (counterscreen for miR-21 project); also: nearly all actives have a fitted effect of over 55% in size;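 as to activity change, negative = inhibition: plate controls were vehicle for no effect and reference inhibitor for full effect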
# Conditions: purified FLuc, luminescence inhibition; series mostly up to 57.5 µM; activity change, negative = inhibition: at the top concentration
# Summary of the method: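 Biochemical qHTS of compounds, final roughly 60 µM downward over six points, against 10 nM purified firefly luciferase using Km concentrations of substrates (10 uM D-luciferin, 10 uM ATP) in Tris acetate pH 7.5 buffer; luminescence output.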
# Potency is read from the fitted curve at half-maximal effect; tags tell the direction and shape of the fitted curve.
SMILES,Potency,"activity change, negative = inhibition"
O=C(/C=C/c1ccccc1)OCc1cnc(Cl)s1,"inconclusive: 30.1 µM [inhibitor, partial curve, poor fit]",–
C=CCn1cc(C(=O)OCC)c(=O)c2cc(F)c(F)cc21,–,inactive: -1.55%
O=C(Nc1ccc2nc(-c3ccc(Br)o3)[nH]c2c1)c1ccco1,active: 5.36 µM,–
N#C/C(=C/c1cccn1-c1cccc(C(=O)O)c1)c1ccc(Cl)cc1,"inconclusive: 21.3 µM [inhibitor, single point]",–
COc1cc(NC(=S)N2CCN(C(=O)c3ccco3)CC2)c(OC)cc1Cl,–,inactive: 0.479%
Cc1ccc(-c2cc(N)n(Cc3ccc(Cl)cc3)n2)cc1,"inconclusive: 19 µM [inhibitor, partial curve, poor fit]",–
O=C(NCCc1cn2ccccc2n1)c1cc(COc2ccc3ncccc3c2)on1,"inconclusive: 37.9 µM [inhibitor, single point]",–
CC(=O)N1CCN(C(=O)C(=O)Nc2c3c(nn2-c2ccc(Cl)cc2)CSC3)CC1,"inconclusive: 42.6 µM [inhibitor, partial curve, poor fit]",–
C=C1C(=O)O[C@@H]2[C@H]1CC[C@H](C)[C@]1(O)CCC(=O)[C@@]21C,"inconclusive: 23.9 µM [inhibitor, partial curve, poor fit]",–
CCc1ccc(C(=O)/C=C/NCc2ccc(F)cc2)cc1,"inconclusive: 23.9 µM [inhibitor, single point]",–
Cc1cc(/C=C2\SC(=O)N(C)C2=O)c(C)n1-c1cccc(C(=O)O)c1,"inconclusive: 23.9 µM [inhibitor, single point]",–
Cc1oc(-c2ccc(C(=O)NCCCOC(C)C)cc2)nc1CS(=O)(=O)c1ccccc1,–,inactive: -11.5%
O=C(O)CCn1cc(C2CC(c3ccccc3)=NN2c2ccccc2)c(-c2ccccc2)n1 (stereo not given),active: 19 µM,–
Cc1ccc(NC(=O)CSc2nnc3ccccn23)cc1,"inconclusive: 37.9 µM [inhibitor, partial curve, poor fit]",–
CCn1ccc2cc(S(=O)(=O)N3CCCN(C(=O)Nc4ccc(C)cc4Cl)CC3)ccc21,–,inactive: -12.5%
C/C(=N\NC(=O)c1cc(-c2cccnc2)nc2ccccc12)c1ccccc1O,"inconclusive: 19 µM [inhibitor, partial curve]",–
C/C(=N/OCO/N=C(/C)c1ccc(F)cc1)c1ccc(F)cc1,–,inactive: 2.89%
COCC(C)N=C1NN=C(c2c[nH]c3ccccc23)CS1 (stereo not given),active: 21.3 µM,–
O=C(Nc1ccc(Cl)cc1)N1CCOC12CCCCC2,"inconclusive: 26.9 µM [inhibitor, partial curve]",–
Cn1c(=O)n(Cc2ccccc2Cl)c(=O)c2c1nc1n2CCN1c1ccccc1,"inconclusive: 2.69 µM [inhibitor, partial curve, poor fit]",–
COc1ccc2c(c1)[nH]c1c(=O)n(N)cnc12,"inconclusive: 26.9 µM [inhibitor, single point]",–
COc1cccc(NC(=O)c2ccccc2-c2nc(-c3ccc(F)cc3)no2)c1,"inconclusive: 30.1 µM [inhibitor, partial curve, poor fit]",–
CCN(CC)c1ccc(NC(=O)CN2C(=O)NC3(CCc4ccccc43)C2=O)cc1 (stereo not given),"inconclusive: 21.3 µM [inhibitor, partial curve, poor fit]",–

SMILES,Potency,"activity change, negative = inhibition"
CCC1CCCCN1C(=O)CSc1nnc(-c2ccc(Cl)cc2)o1 (stereo not given),–,inactive: -15.1%
Cc1ccc(C(=O)COC(=O)CCCC(=O)Nc2cc(C(F)(F)F)ccc2Cl)cc1C,active: 3.01 µM and active: 2.39 µM,–
CCn1cc(CNC(=O)c2ccc3nc(Cc4ccccc4F)oc3c2)cn1,"inconclusive: 21.3 µM [inhibitor, single point]",–
Cc1c(Cl)cccc1NC(=O)CSc1nc(=O)n(Cc2ccncc2)c2c1CCC2,–,inactive: -2.26%
CCc1noc(C)c1C(=O)NCCc1ccccc1,"inconclusive: 37.9 µM [inhibitor, single point]",–
CC(Oc1ccccc1F)C(=O)Nc1ccc2ccccc2c1 (stereo not given),"inconclusive: 21.3 µM [inhibitor, partial curve]",–
CCOc1ncccc1C(=O)OCC(=O)c1ccc(C)c(C)c1,active: 10.7 µM,–
COc1ccc(-c2nsc(NC(=O)COc3ccccc3OC)n2)cc1,"inconclusive: 12 µM [inhibitor, partial curve]",–
O=C1Nc2cc(Cl)c(Cl)cc2N(O)N1c1ccc(Cl)cc1,"inconclusive: 30.1 µM [inhibitor, partial curve, poor fit]",–
CC1CN(C(=O)c2cccc(S(=O)(=O)Nc3cc(Cl)ccc3Cl)c2)CC(C)O1 (stereo not given),"inconclusive: 37.9 µM [inhibitor, partial curve, poor fit]",–
CCC1=C(OC(=O)N(CC)CC)N2C(=O)OC(=NCC(=O)OC)[C@]2(Cc2ccccc2)[C@H]2C1=CC[C@H]1C(=O)NC(=O)[C@H]12,–,inactive: 0.282%
CC(=O)NS(=O)(=O)c1ccc(NC(=O)/C=C/c2ccccc2)cc1,"inconclusive: 26.9 µM [inhibitor, partial curve]",–
Cc1cc(C(=O)CSc2cccc[n+]2[O-])c(C)n1-c1ccccc1,active: 1.69 µM,–
CC(C)Oc1ccc(C(=O)O)cc1,–,inactive: -2.15%
Cc1ccc(OCCN2C(=O)C(=O)c3cc(C)ccc32)cc1,active: 15.1 µM,–
Cc1cccc(CSc2nnc(-c3ccco3)o2)c1,"inconclusive: 30.1 µM [inhibitor, partial curve]",–
Cc1cccc(N(CC(=O)NC2CCCC2)C(=O)CNC(=O)c2ccco2)c1C,–,inactive: 5.04%
CCCC(=O)Nc1cccc(-c2nc3cc(C)c(C)cc3o2)c1,active: 0.601 µM,–
CCOC(=O)NC(=O)/C(C#N)=C/c1ccc(N(C)C)cc1,"inconclusive: 16.9 µM [inhibitor, partial curve]",–
Cc1cc(C)c(NC(=O)C2CCN(C(=O)N3CC(C)Oc4ccc(Cl)cc43)CC2)c(C)c1 (stereo not given),–,inactive: -8.54%
O=C(CSc1nnc(CNC(=O)c2ccc(F)cc2)o1)NCc1ccc2c(c1)OCO2,–,inactive: -1.46%
COC(=O)CC/C(=N/Nc1ccc(Cl)c(Cl)c1)C(=O)OC,"inconclusive: 37.9 µM [inhibitor, partial curve, poor fit]",–
